Experimental data from the supplement of paper PMC10126150.
Values marked as one replicate rest on one cluster of the flow cell; about a third of the high ones do not repeat.

Each sequence was assayed on ATP (assay: switch fluorescence ratio, 500 uM ATP over buffer (Cy3 cluster intensity, sum of 5 cycles each) (fold (ratio)); higher = stronger signal-on switching upon ATP binding; sequences stand for … in TCGTCGGCAGCGTCAGATGTGTATAAGAGACAGTTTTTTTTTTTTTTTTTTTTTTTTT…TC). Conditions: aptamer strand: ATP DNA aptamer (quencher-CACCTGGGGGAGTATTGCGGAGGAAGG + anchor), 100 nM annealed; ATP concentration: 500 uM; one replicate.
Method in brief: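 The quencher-labelled ATP aptamer, at 100 nM, was annealed to Cy3-labelled switching-strand clusters on a modified Illumina MiSeq flow-cell. The clusters were imaged in selection buffer, then after 15 min with 500 uM ATP at 22 °C, and this buffer/ATP cycle ran five times with NaOH stripping and re-annealing between runs. Per-cluster fluorescence ratios, summed target-cycle over summed buffer-cycle Cy3 intensity, were averaged per switch-domain sequence. Clusters outside 100-1000 RFU were excluded.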
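Also: ATP exposure 15 min at 22 °C before imaging.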

Sequence | switch fluorescence ratio
TATGTGCCGG | 1.06
TATGTTGAGA | 1.01
TATGTTGCTC | 1.02
TATGTTGTTC | 0.985
TATGTTTGCA | 0.982
TATTACGGAC | 1.36
TATTACGTGC | 1.02
TATTACTATG | 1.02
TATTACTGCG | 0.997
TATTAGAC | 1.07
TATTAGGAGA | 1.01
TATTAGTCAC | 1
TATTAGTGGT | 0.99
TATTATACGG | 1.04
TATTATATA | 1.01
TATTATCTAT | 1.03
TATTATTCGC | 1.07
TATTATTGTA | 1.02
TATTCAAATC | 1.03
TATTCCTTAG | 1.07
TATTCGAGA | 1.02
TATTCGAGGT | 1.02
TATTCGATTG | 0.952
TATTCGGGTC | 1.05
TATTCGTCGG | 0.993
TATTCTATTA | 0.998

Sequence | switch fluorescence ratio
TATTCTGAAA | 0.989
TATTGAAACC | 1.03
TATTGAGCAG | 1.01
TATTGATCAC | 0.98
TATTGATTCT | 0.983
TATTGCAC | 1.07
TATTGCGGAT | 1.05
TATTGCTGC | 0.959
TATTGGCCCC | 0.997
TATTGGTGTC | 1.01
TATTTACACT | 1.05
TATTTAGCAC | 1.08
TATTTAGCTG | 0.959
TATTTATCCA | 1.02
TATTTATCGA | 0.989
TATTTATTAT | 0.982
TATTTATTGA | 0.993
TATTTCCAGA | 0.992
TATTTGAGCG | 0.987
TATTTGGTCA | 0.963
TATTTGTG | 0.985
TATTTTATGC | 0.985
TATTTTCGTC | 1.01
TATTTTTCGT | 0.998
TCAAAATTGT | 1.04
TCAAACGTCC | 1.08

Sequence | switch fluorescence ratio
TCAAAGAGAG | 1.02
TCAAAGATT | 0.991
TCAAAGGACG | 1.02
TCAAATCGCG | 1.02
TCAAATGGTC | 1.08
TCAACAGATA | 0.998
TCAACCCCCG | 1.29
TCAACCTGAT | 1.08
TCAACCTTGT | 1.67
TCAAGAAAAC | 1.01
TCAAGAATAG | 1.01
TCAAGGAGGA | 0.977
TCAAGTAGAA | 1.04
TCAAGTGGAG | 1.04
TCAAGTTTCG | 0.932
TCAATAAGAG | 0.987
TCAATATAGG | 0.977
TCAATATTTG | 0.985
TCAATCAATA | 1.03
TCAATCGTGC | 0.981
TCAATCTAAG | 1.11
TCAATGAGGA | 0.999
TCAATTAAAC | 1.01
TCAATTCTGT | 0.994
TCACAACCTT | 1.54
TCACACATAC | 1.78

Sequence | switch fluorescence ratio
TCACACCGTT | 1.02
TCACACGTAC | 1.86
TCACAGCAG | 1.1
TCACATGTA | 1.02
TCACCGTGAG | 1.08
TCACCGTTCC | 2.07
TCACCTAACA | 1.12
TCACCTGTAT | 1.03
TCACGACTGT | 1.01
TCACGAGACG | 1.07
TCACGCATTT | 1.08
TCACGGCGTG | 1
TCACGGGGT | 0.965
TCACGTTCGC | 1.02
TCACGTTGC | 1.02
TCACTAGAGG | 1.04
TCACTAGTAC | 1.17
TCACTATCCT | 1.05
TCACTATCTT | 1
TCACTGAAAC | 1.01
TCACTGATTA | 1.02
TCACTGCTGG | 1.01
TCACTTTGAT | 1.02
TCAGACAAGG | 1.03
TCAGAGGGC | 1.07
TCAGATAATC | 1.01

Sequence | switch fluorescence ratio
TCAGATGCCA | 1.02
TCAGATGTGC | 1.03
TCAGATTTGT | 0.982
TCAGCACCGG | 1.04
TCAGCACGGC | 1.1
TCAGCCAGAC | 3.87
TCAGCGTAGG | 1
TCAGGAGACC | 1.02
TCAGGCACCT | 1.14
TCAGGCGTAA | 1.31
TCAGGGCCTT | 0.986
TCAGGGTCCT | 1.08
TCAGGGTTAG | 0.994
TCAGGTCGTC | 1.03
TCAGGTGACA | 1.19
TCAGTACTAT | 1.03
TCAGTAGATG | 0.951
TCAGTCACTT | 0.995
TCAGTCAGGT | 0.975
TCAGTCTGGG | 0.99
TCAGTGACT | 1.02
TCAGTGGGCA | 0.989
TCAGTTGCTT | 0.987
TCAGTTGGA | 1.02
TCATAAGAT | 0.999
TCATACGC | 1.05

Sequence | switch fluorescence ratio
TCATAGCCGA | 1.04
TCATATGATG | 1.01
TCATATTGCA | 1.02
TCATCACTAT | 1.02
TCATCCGTCA | 2.64
TCATCCTCGC | 1.58
TCATCCTTCC | 3.21
TCATCGCAGT | 2.09
TCATGAATCT | 1.03
TCATGCGGTC | 1.01
TCATGGAGAA | 1
TCATGTTCGC | 0.977
TCATTAGCCG | 1.03
TCATTAGTTG | 0.983
TCATTCCTTA | 1.03
TCATTGATAT | 1.04
TCCAAAAGAT | 0.999
TCCAAAGCGG | 2.26
TCCAAAGTGC | 1.85
TCCAAATGTT | 1
TCCAACTTAA | 1
TCCAAGCTAG | 1.14
TCCAAGTCGG | 0.963
TCCAATAGTC | 1.32
TCCAATCTGT | 0.958
TCCAATTGAG | 1.04

Sequence | switch fluorescence ratio
TCCACCGAGG | 1.25
TCCACCTTGA | 0.992
TCCACGATCA | 1.12
TCCACGTGCT | 0.974
TCCAGCCTTA | 1.53
TCCAGCGGA | 0.983
TCCAGGGGA | 1.09
TCCAGTACAG | 1.05
TCCAGTTCGT | 1.39
TCCAGTTTCG | 0.977
TCCATACG | 1.02
TCCATATGTA | 0.993
TCCATCAGCC | 0.997
TCCATCCACT | 1.12
TCCATCGGCC | 1.08
TCCATGTCAA | 1.08
TCCATTACGG | 1.04
TCCATTATAC | 1.6
TCCATTATGG | 0.977
TCCCAAAGTA | 1.01
TCCCAACCG | 1.04
TCCCAATGGT | 1.12
TCCCACGGG | 1.11
TCCCACGTGG | 0.984
TCCCAGGAGG | 1.38
TCCCCAAACC | 1.13

Sequence | switch fluorescence ratio
TCCCCCTTGG | 2.26
TCCCGAGTAT | 1.01
TCCCGCCAAA | 1.74
TCCCGGCCCC | 1.15
TCCCGGGCGT | 1.12
TCCCGTCGGG | 1.05
TCCCGTCGGT | 1.02
TCCCGTGTAG | 1.04
TCCCGTTTCA | 0.963
TCCCTAGGGA | 1.06
TCCCTAGTGG | 1.01
TCCCTCATG | 1.04
TCCCTGATTC | 1.04
TCCCTTCG | 1.29
TCCCTTGAGG | 0.995
TCCGAAGAGG | 1.2
TCCGAGGCTG | 2.83
TCCGATAGG | 0.977
TCCGCCATT | 3.2
